Results from the supplement of paper PMC12217912.
The other results are listed elsewhere or left out. The full chains were built here from the parent and the listed change. Inactive controls read about 0.05.

B1: TEV protease; numbered along this chain (parent)
chain: MGESLFKGPRDYNPISSSICHLTNESDGHTTSLYGIGFGPFIITNKHLFRRNNGTLVVQSLHGVFKVKDTTTLQQHLVDGRDMIIIRMPKDFPPFPQKLKFREPQREERICLVTTNFQTKSMSSMVSDTSCTFPSGDGIFWKHWIQTKDGQCGSPLVSTRDGFIVGIHSASNFTNTNNYFTSVPKNFMELLTNQEAQQWVSGWRLNADSVLWGGHKVFMVKPEEPFQPVKEATQL

Variants of: B1
Assay: raw area under fraction-flipped curve 0-4 h after induction (AUC4h, not background-subtracted), DNA-recorder readout of cleavage of the substrate (dimensionless); higher = more cleavage of the substrate by the protease variant
Conditions: temperature: 34 °C; time window: 0-4 h after rhamnose induction
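Also: Bxb1 expression induced with 0.2% (w/v) L-rhamnose at OD600 near 0.5, cultures sampled hourly, flipped fraction per protease–substrate barcode pair counted by paired-end Illumina sequencing.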

Q: With MGESLFKGPRDYNPISSSICHLTNESDGHTTSLYGIGFGPFIITNKHLFRRNNGTLVVQSLHGVFKVKDTTTLQQHLVDGRDMIIIRMPKDFPPFPQKLKFREPQREERICLVTTNFQTKSMSSMVSDTSCTFPSGDGIFWKHWIQTKDGQCGSPLVSTRDGFIVGIHSASNFTNTNNYFTSVPKNFMELLTNQEAQQWVSGWRLLADSVLWGGHKVFMVKPEEPFQPVKEATQL [N206L] as the variant, how does the “area with substrate ENLYIQS” value read?
A: 0.141

Q: With MGESLFKGPRDYNPISSSICHLTNESDGHTTSLYGIGFGPFIITNKHLFRRNNGTLVVQSLHGVFKVKDTTTLQQHLVDGRDMIIIRMPKDFPPFPQKLKFREPQREERICLVTTNFQTKSMSSMVSDTSCTFPSGDGIFWKHWIQTKDGQCGSPLVSTRDGFIVGIHSASNFTNTNNYFTSVPKNFMELLTNQEAQQWVSGWRLNADSVLWGGHKVFMVKPAEPFQPVKEATQL [E223A] as the variant, how does the “area with substrate ENLYIQS” value read?
A: 0.0931

Q: And the “area with substrate ENLYVQS” value?
A: 0.0791

Q: With MGESLFKGPRDYNPISSSICHLTNESDGHTTSLYGIGFGPFIITNKHLFRRNNGTLVVQSLHGVFKVKDTTTLQQHLVDGRDMIIIRMPKDFPPFPLKLKFREPQREERICLVTTNFQTKSMSSMVSDTSCTFPSGDGIFWKHWIQTKDGQCGSPLVSTRDGFIVGIHSASNFTNTNNYFTSVPKNFMELLTNQEAQQWVSGWRLNADSVLWGGHKVFMVKPEEPFQPVKEATQL [Q97L] as the variant, how does the “area with substrate ENLYKQS” value read?
A: 0.0495

Q: What about the “area with substrate ENLYQQS” value of the same variant?
A: 0.0579

Q: What about the “area with substrate ENLYWQS” value of the same variant?
A: 0.0934

Q: What about the “area with substrate ENLYYQS” value of the same variant?
A: 0.0641

Q: Which “area with substrate ENLYKQS” value does the source give for MGESLFKGPRDYNPISSSICHLTNESDGHTTSLYGIGFGPFIITNKHLFRRNNGTLVVQSLHGVFKVKDTTTLQQHLVDGRDMIIIRMPKDFPPFPYKLKFREPQREERICLVTTNFQTKSMSSMVSDTSCTFPSGDGIFWKHWIQTKDGQCGSPLVSTRDGFIVGIHSASNFTNTNNYFTSVPKNFMELLTNQEAQQWVSGWRLNADSVLWGGHKVFMVKPEEPFQPVKEATQL [Q97Y] here?
A: 0.0436

Q: And the “area with substrate ENLYTQS” value?
A: 0.0782

Q: And the “area with substrate ENLYVQS” value?
A: 0.115

Q: What does the source list for MGESLFKGPRDYNPISSSICHLTNESDGHTTSLYGIGFGPFIITNKHLFRRNNGTLVVQSLHGVFKVKDTTTLQQHLVDGRDMIIIRMPKDFPPFPQKWKFREPQREERICLVTTNFQTKSMSSMVSDTSCTFPSGDGIFWKHWIQTKDGQCGSPLVSTRDGFIVGIHSASNFTNTNNYFTSVPKNFMELLTNQEAQQWVSGWRLNADSVLWGGHKVFMVKPEEPFQPVKEATQL [L99W]?
A: area with substrate ENLYKQS: 0.0535; area with substrate ENLYMQS: 0.0784; area with substrate ENLYQQS: 0.0594; area with substrate ENLYVQS: 0.0886; area with substrate ENLYYQS: 0.0748

Q: Which results are given for MGESLFKGPRDYNPISSSICHLTNESDGHTTSLYGIGFGPFIITNKHLFRRNNGTLVVQSLHGVFKVKDTTTLQQHLVDGRDMIIIRMPKDFPPFPQKLKFREPQREERICLVTTNFQTKSMSSMVSDTSCTFPSGTGIFWKHWIQTKDGQCGSPLVSTRDGFIVGIHSASNFTNTNNYFTSVPKNFMELLTNQEAQQWVSGWRLNADSVLWGGHKVFMVKPEEPFQPVKEATQL [D137T]?
A: area with substrate ENLYKQS: 0.0628; area with substrate ENLYLQS: 0.0807; area with substrate ENLYWQS: 0.0666; area with substrate ENLYYQS: 0.0692

Q: With MGESLFKGPRDYNPISSSICHLTNESDGHTTSLYGIGFGPFIITNKHLFRRNNGTLVVQSLHGVFKVKDTTTLQQHLVDGRDMIIIRMPKDFPPFPQKLKFREPQREERICLVTTNFQTKSMSSMVSDTSCTFPSGDGIFWKHWIQTKDGQCGSPLVSTRDGFIVGIHSASMFTNTNNYFTSVPKNFMELLTNQEAQQWVSGWRLNADSVLWGGHKVFMVKPEEPFQPVKEATQL [N172M] as the variant, how does the “area with substrate ENLYKQS” value read?
A: 0.032

Q: With MGESLFKGPRDYNPISSSICHLTNESDGHTTSLYGIGFGPFIITNKHLFRRNNGTLVVQSLHGVFKVKDTTTLQQHLVDGRDMIIIRMPKDFPPFPQKLKFREPQREERICLVTTNFQTKSMSSMVSDTSCTFPSGDGIFWKHWIQTKDGQCGSPLVSTRDGFIVGIHSASNFTNTNNYFTSVPKHFMELLTNQEAQQWVSGWRLNADSVLWGGHKVFMVKPEEPFQPVKEATQL [N186H] as the variant, how does the “area with substrate ENLYKQS” value read?
A: 0.0665

Q: What about the “area with substrate ENLYVQS” value of the same variant?
A: 0.15

Q: What about the “area with substrate ENLYYQS” value of the same variant?
A: 0.0703

Q: What does the source list for MGESLFKGPRDYNPISSSICHLTNESDGHTTSLYGIGFGPFIITNKHLFRRNNGTLVVQSLHGVFKVKDTTTLQQHLVDGRDMIIIRMPKDFWPFPQKLKFREPQREERICLVTTNFQTKSMSSMVSDTSCTFPSGDGIFWKHWIQTKDGQCGSPLVSTRDGFIVGIHSASNFTNTNNYFTSVPKNFMELLTNQEAQQWVSGWRLNADSVLWGGHKVFMVKPEEPFQPVKEATQL [P93W]?
A: area with substrate ENLYLQS: 0.0651; area with substrate ENLYQQS: 0.0755; area with substrate ENLYVQS: 0.073

Q: For MGESLFKGPRDYNPISSSICHLTNESDGHTTSLYGIGFGPFIITNKHLFRRNNGTLVVQSLHGVFKVKDTTTLQQHLVDGRDMIIIRMPKDFPPFPQKLKFREPQREERICLVTTNFQTKSMSSMVSDTSCTFPSGDGIFWKHWIQTKDGQCGSPLVSTRDGFIVGIHSASNFTNTNNYFTSVPKNFMENLTNQEAQQWVSGWRLNADSVLWGGHKVFMVKPEEPFQPVKEATQL [L190N], which “area with substrate ENLYLQS” value is on record?
A: 0.0426

Q: And the “area with substrate ENLYQQS” value?
A: 0.0681

Q: And the “area with substrate ENLYYQS” value?
A: 0.0893

Q: What does the source list for MGESLFKGPRDYNPISSSICHLTNESDGHTTSLYGIGFGPFIITNKHLFRRNNGTLVVQSLHGVFKVKDTTTLQQHLVDGRDMIIIRMPKDFPPFPQKLKFREPQREERICLVTTNFQTKSMSSMVSDTSCTFPSGDGIFWKHWIQTKDGQCGSPLVSTRDGFIVGIHSASNFTNTNNYFTSVPKNFMELLTNQEAQQWVSGWRLNADGVLWGGHKVFMVKPEEPFQPVKEATQL [S209G]?
A: area with substrate ENLYLQS: 0.0982; area with substrate ENLYMQS: 0.0717; area with substrate ENLYNQS: 0.0745; area with substrate ENLYQQS: 0.0502; area with substrate ENLYRQS: 0.0468; area with substrate ENLYWQS: 0.0693
